The whole screen tested about 48,000 compounds, of which about 550 (1.1%) were called active. Not shown: some 4% with an inconclusive outcome. Rule as the data show it: active = potency below about 15 µM; inconclusive = mostly about 16 µM to 33 µM; inactive = weaker than that. This is one part of the list.
Potency is read from the fitted curve at half-maximal effect.

In this test the target is Lysosomal acid glucosylceramidase (Homo sapiens) (UniProt P04062). Put plainly: Glucocerebrosidase.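 Also: the screen sought inhibitors.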 The following applies: purified enzyme, resorufin glucoside fluorescence (screen aimed at inhibitors), 20 min; series mostly up to 77 µM. The gist of the method: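 Normal human glucocerebrosidase (0.2 nM final) was assayed with resorufin β-D-glucopyranoside (30 uM final) in 50mM citric acid/KH2PO4, 10mM sodium taurocholate, 0.01% tween-20, pH 5.9. Compounds were titrated; fluorescence (Ex 548, Em 600) read after 20 min at RT.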
Sequence of UniProt P04062 (P04062 whole entry, looked up): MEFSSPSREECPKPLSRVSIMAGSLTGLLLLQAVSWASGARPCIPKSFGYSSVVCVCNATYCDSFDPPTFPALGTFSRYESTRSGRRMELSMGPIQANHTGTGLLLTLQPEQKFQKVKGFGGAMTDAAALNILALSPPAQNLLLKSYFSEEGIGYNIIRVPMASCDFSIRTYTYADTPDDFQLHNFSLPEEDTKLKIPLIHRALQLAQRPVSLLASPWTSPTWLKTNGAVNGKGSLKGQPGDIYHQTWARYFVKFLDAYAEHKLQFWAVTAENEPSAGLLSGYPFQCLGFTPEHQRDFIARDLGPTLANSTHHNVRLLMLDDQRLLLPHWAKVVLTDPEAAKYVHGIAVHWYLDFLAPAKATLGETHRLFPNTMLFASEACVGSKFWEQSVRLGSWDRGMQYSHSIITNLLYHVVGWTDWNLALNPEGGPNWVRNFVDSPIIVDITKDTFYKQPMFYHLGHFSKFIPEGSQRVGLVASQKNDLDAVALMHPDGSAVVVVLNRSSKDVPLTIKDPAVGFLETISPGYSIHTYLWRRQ
As for `CCCn1c(=N)c(C(=O)NCc2ccc3c(c2)OCO3)cc2c(=O)n3cccc(C)c3nc21`, the Potency is inactive: > 76.9 µM. In the case of `C1=CC2CC1CC2CNCc1ccco1` (stereo not drawn) it was inactive: > 76.9 µM; in that of `CCOC(=O)CC(=O)CSc1nc(C)nc2c1oc1ccccc12`, inactive: > 76.9 µM; in that of `Nc1nc(CN2CCN(c3ccccn3)CC2)nc(Nc2ccc(Cl)cc2)n1`, “inactive”. Regarding `Cc1cc(C)n2c(=S)[nH]nc2n1`, the Potency is inactive: > 76.9 µM. The value for `C=CCn1c(=O)c2ccccc2n2c(SCC(=O)N3CCCc4ccccc43)nnc12` was inactive: > 76.9 µM; that for `COc1cc(C(=O)NCc2nnc(SCC(=O)Nc3cc(C)cc(C)c3)o2)cc(OC)c1OC` was inactive: > 76.9 µM; that for `CCOC(=O)N1CCN(C(=O)c2cccc(NC3=NC4CS(=O)(=O)CC4S3)c2)CC1` (stereo not drawn) was inactive: > 76.9 µM. The value for `Cc1ccc(SC(C)c2nc(-c3cccnc3)no2)cc1` (stereo not drawn) was inactive: > 76.9 µM; that for `Cn1c(=O)oc2cc(S(=O)(=O)NCCC(=O)N3CC=C(c4ccccc4)CC3)ccc21` was inactive: > 76.9 µM; that for `Cc1csc(NC(=O)c2sc3nc(-c4cccs4)ccc3c2N)n1` was inactive: > 76.9 µM. The value for `Cc1ccc(S(=O)(=O)N2C(=O)CCC2C(=O)NCc2ccco2)cc1` (stereo not drawn) was inactive: > 76.9 µM. For the molecule `CCn1cc(Br)c(C(=O)Nc2cccc(Cl)c2)n1`, the Potency was inactive: > 76.9 µM.

Consider `O=C(NCc1ccc(F)cc1)c1noc2c1CCCC2`, for which the Potency was inactive: > 76.9 µM.

As to `O=C(O)CCN1C(=O)c2ccc(NC(=O)c3cccs3)cc2C1=O`, the Potency is inactive: > 76.9 µM. The value for `Cc1cc(C)c2nc(N3CCCN(C(=O)c4cnccn4)CC3)c(C#N)cc2c1` was inactive: > 76.9 µM; that for `Cc1nn(C)cc1CNC(=O)c1cnn2c1NC(c1ccc(Br)cc1)CC2C(F)(F)F` (stereo not drawn) was inactive: > 76.9 µM; that for `Cn1c(=O)c2[nH]c(N3CCOCC3)nc2n(-c2ccccc2)c1=O` was inactive: > 76.9 µM. Consider `O=C(COC(=O)c1cccnc1Nc1ccccc1F)NCc1ccc2c(c1)OCO2`, for which the Potency was inactive: > 76.9 µM. With `O=C(Nc1ccc2c(c1)OCO2)OCc1ccccc1`, the Potency is inactive: > 76.9 µM. With `COc1cccc(C2C3CN(C)CC=C3C(C#N)=C(N)C2(C#N)C#N)c1OC` (stereo not drawn), the Potency was inactive: > 76.9 µM. As to `O=C(OCc1c(Cl)nc2sccn12)c1cc2c(s1)CCCC2`, the Potency is inactive: > 76.9 µM. The value for `CCCS(=O)(=O)C(=C1NCCO1)S(=O)(=O)CCC` was inactive: > 76.9 µM. As for `O=C(NC1CCCCC1)C1CCCN(S(=O)(=O)c2cccs2)C1` (stereo not drawn), the Potency was inactive: > 76.9 µM. For the molecule `COc1ccc(N2C(=O)CN=C2Nc2cccc(C)c2C)cc1OC`, the Potency is inactive: > 76.9 µM.

Turning to `Cc1cc(C)n(-c2nc3c(c(=O)[nH]c(=O)n3C)n2C)n1`, the Potency is inactive: > 76.9 µM. The value for `CCC(=O)N1CCc2cc(S(=O)(=O)N3CCc4ccccc43)ccc21` was inactive: > 76.9 µM; that for `COc1ccc(C(=O)Nc2cccc(-c3nc4ncccc4o3)c2C)cc1OC` was inactive: > 76.9 µM. The value for `Cc1c(NC(=O)C2Cc3ccccc3CN2C(=O)c2ccco2)c(=O)n(-c2ccccc2)n1C` (stereo not drawn) was inactive: > 76.9 µM; that for `C/C=C/c1ccc(OCCn2cncn2)c(OC)c1` was inactive: > 76.9 µM; that for `CC(C)CNC(=O)c1cccc(Cn2cc(Cl)cn2)c1` was inactive: > 76.9 µM. In the case of `CCOC(=O)c1c(N)nn(C(C)=O)c1-c1ccccc1`, the Potency is inactive: > 76.9 µM. In the case of `Cc1nc2nc(-c3ccco3)nn2c(C)c1Cl`, the Potency is inactive: > 76.9 µM. Take `CCOC(=O)CNC(=O)CSc1ncnc2c1cnn2-c1ccc(C)cc1`: the Potency is inactive: > 76.9 µM. Consider `Cc1ccc(C)c(NC(=O)CC(NCCCN2CCOCC2)C(=O)O)c1` (stereo not drawn), for which the Potency is inactive: > 76.9 µM. In the case of `Cc1cccc(OCC(=O)Nc2cccc(-c3nnc(-c4ccccc4)o3)c2)c1C` it was inactive: > 76.9 µM; in that of `O=C(Nc1ccc(S(=O)(=O)NC2CCCC2)cc1)c1cnccn1`, inactive: > 76.9 µM. As to `CCCN1/C(=C(/C#N)C2=NS(=O)(=O)c3ccccc32)N(C)c2ccccc21`, the Potency is inactive: > 76.9 µM. In the case of `O=c1[nH]c2ccc(S(=O)(=O)NCc3ccccn3)cc2s1` it was inactive: > 76.9 µM; in that of `CN(C)C(=O)N1CCC(C(=O)NCc2ccccc2)CC1`, inactive: > 76.9 µM; in that of `Cc1ccc(C)c2[nH]c(=O)c(C(c3nnnn3Cc3ccco3)N3CCc4ccccc4C3)cc12` (stereo not drawn), inactive: > 76.9 µM.

In the case of `COCCNC(=O)C(c1ccc(Cl)cc1)N(C(=O)CCC(=O)Nc1ccccn1)C1CCCC1` (stereo not drawn), the Potency is inactive: > 76.9 µM. The value for `Cc1ccc(C)c(SCC(=O)Nc2nnc(-c3ccccc3)o2)c1` was inactive: > 76.9 µM. The value for `Cc1ccc(CN(CC(=O)NCCc2ccccc2)C(=O)CCCC(=O)Nc2cc(C)on2)cc1` was inactive: > 76.9 µM; that for `Cn1nnnc1SCC(=O)Nc1ccc(Oc2ccccc2)cc1` was inactive: > 76.9 µM; that for `O=C(NCCCN1CCc2ccccc2C1)C1CCN(S(=O)(=O)N2CCCC2)CC1` was inactive: > 76.9 µM. In the case of `C=CCn1c(=O)c(C(=O)Nc2nnc(C)s2)c(O)c2ccccc21` it was inactive: > 76.9 µM; in that of `COc1cc(C(=S)N2CCCCC2)ccc1OCC(=O)N1CCCC1`, inactive: > 76.9 µM; in that of `Cc1n[nH]c(C)c1S(=O)(=O)N1CCN(C2CCCCC2)CC1`, inactive: > 76.9 µM. Take `O=C(NCc1ccc(Cl)cc1Cl)c1ccccn1`: the Potency is inactive: > 76.9 µM. In the case of `CCN1CCN(c2ncc(C(=O)Nc3cc(Cl)c(OC)cc3OC)c3ccccc23)CC1` it was “inactive”; in that of `CC(C)(C)OC(=O)NCCCC(CCCNC(=O)OC(C)(C)C)C(=O)O`, inactive: > 76.9 µM; in that of `O=C(CSc1nc(O)cc(=O)[nH]1)Nc1ccc2c(c1)CCC2`, inactive: > 76.9 µM. Turning to `O=C(OCCCN1C(=O)c2ccccc2C1=O)c1ccco1`, the Potency is inactive: > 76.9 µM. The value for `CCC(=O)N(Cc1cc2ccccc2[nH]c1=O)C(C)C` was inactive: > 76.9 µM; that for `N#C/C(=C1\CCCN1)c1nc2ccccc2c(=O)[nH]1` was inactive: > 76.9 µM. In the case of `O=C(Nc1nncs1)C1c2ccccc2Oc2ccccc21` it was inactive: > 76.9 µM. Consider `COc1cccc(-c2nn(C)c3sc(C(=O)N4CCN(c5ccccn5)CC4)cc23)c1`, for which the Potency is inactive: > 76.9 µM. The value for `CCn1c(=O)c(C(=O)NCc2ccc(OC)c(OC)c2)c(O)c2ccccc21` was inactive: > 76.9 µM. Consider `O=C(O)CCC(=O)NCC1OCCc2ccccc21` (stereo not drawn), for which the Potency is inactive: > 76.9 µM.

On to `CCOC(=O)c1sc(NC(=O)CSc2nnc(-c3ccco3)o2)c(C(=O)OCC)c1C`, for which the Potency is inactive: > 76.9 µM. As to `CCC(=O)N1CCc2cc(S(=O)(=O)CCC(=O)NCCc3ccc(OC)c(OC)c3)ccc21`, the Potency was inactive: > 76.9 µM. The value for `O=C(CCC(=O)c1cccs1)OCC(=O)N1CCN(S(=O)(=O)c2ccccc2)CC1` was inactive: > 76.9 µM; that for `Cc1occc1C(=O)NC(C)C1CCCO1` (stereo not drawn) was inactive: > 76.9 µM; that for `CC(C)(C)OC(=O)N1CCCC1C(=O)O` (stereo not drawn) was inactive: > 76.9 µM. The value for `CCOc1ccc(NS(=O)(=O)c2ccc3c(c2)CCN3C(=O)CCC(=O)O)cc1` was inactive: > 76.9 µM. In the case of `CCOC(=O)C1CCCN(C(=O)c2cc(Nc3ccc(OC)c(OC)c3)nc3ccccc23)C1` (stereo not drawn), the Potency is inactive: > 76.9 µM.

For the molecule `Cc1cc(C)nc(N2CCCC(C(=O)NCCc3cccc(F)c3)C2)n1` (stereo not drawn), the Potency was inactive: > 76.9 µM.

Consider `CN(C(=O)c1cccc(C#N)c1)c1nnc(C2CCOC2)s1` (stereo not drawn), for which the Potency is inactive: > 76.9 µM. `Cc1nn(-c2ccccc2)cc1/C=N/O`: the Potency was inactive: > 76.9 µM. With `CC(Oc1ccccc1)C(=O)Nc1ccc(S(=O)(=O)NCC2CCCO2)cc1` (stereo not drawn), the Potency is inactive: > 76.9 µM. The value for `Clc1ccc(-c2nn3c(Cn4cnc5ccccc54)nnc3s2)c(Cl)c1` was inactive: > 76.9 µM; that for `O=C(Cn1cnc2ccccc2c1=O)NCCC(=O)Nc1ccc2c(c1)OCCO2` was inactive: > 76.9 µM.

As for `COc1cc(C)c(S(=O)(=O)n2ccc(C)n2)cc1C`, the Potency is inactive: > 76.9 µM. In the case of `CCOC(=O)CNC(=O)c1nn(-c2cccc(OC)c2)c(=O)c2ccccc12` it was inactive: > 76.9 µM; in that of `O=C(CSc1n[nH]c(-c2ccc(S(=O)(=O)NC3CCCCC3)cc2)n1)N1CCCC1`, “inactive”. On to `Cc1ccccc1Cn1ccc(NC(=O)c2cc3nc(-c4ccco4)cc(C(F)(F)F)n3n2)n1`, for which the Potency is inactive: > 76.9 µM.

On to `Cc1ccc2nsnc2c1S(=O)(=O)N1CCN(C(=O)C2CCCO2)CC1` (stereo not drawn), for which the Potency is inactive: > 76.9 µM. In the case of `COc1ccc(-c2cc(C(=O)N3CCOCC3)c3cc(C)ccc3n2)cc1` it was inactive: > 76.9 µM; in that of `O=C(Nc1nc2c(s1)CCCC2=O)c1cnccn1`, inactive: > 76.9 µM. In the case of `CCOc1ccccc1NC(=O)C1Cc2ccccc2CN1S(C)(=O)=O` (stereo not drawn) it was inactive: > 76.9 µM; in that of `COC(=O)C1CCN(C(=O)C23CCC(C)(C(=O)O2)C3(C)C)CC1` (stereo not drawn), inactive: > 76.9 µM; in that of `COc1cc(NC(=O)c2cccs2)c(OC)cc1NC(=O)c1ccco1`, inactive: > 76.9 µM. In the case of `COc1ccc(NS(=O)(=O)c2cccc(C(=O)O)c2)cc1` it was inactive: > 76.9 µM; in that of `COc1cc(C(=O)N2CCC(NC(=O)C(Cc3ccc(C)cc3)NC(C)=O)CC2)cc(OC)c1OC` (stereo not drawn), inactive: > 76.9 µM. In the case of `CC(=O)c1ccc(N2C(=O)[C@@H]3C(CCC(N)=O)NC4(C(=O)Nc5c4ccc(Cl)c5C)[C@@H]3C2=O)cc1` (stereo partly drawn), the Potency was inactive: > 76.9 µM. In the case of `CC(C)(C)n1nnnc1C(c1cccnc1)N1CCN(C2CCCCC2)CC1` (stereo not drawn) it was inactive: > 76.9 µM.

For `CC(=O)Nc1c(O)nc(SCC(=O)Nc2nnc(CC(C)C)s2)[nH]c1=O`, the Potency was inactive: > 76.9 µM.

These data come from PubChem BioAssay AID360 (National Center for Advancing Translational Sciences (NCATS), 2006).
